In patent US20240294623A1:

Target: latent TGFβ1 from human, rat, and cynomolgus monkey
Test: cell-based or functional assay

IC50, inhibition of latent TGFβ1 activation (LN229 transfectants with CAGA12 reporter cells): 1.02 to 1.11 nM
B1: Ab6 (antibody)
heavy: EVQLVESGGGLVQPGGSLRLSCTASGFTFSSFSMDWVRQAPGKGLEWVSYISPSADTIYYADSVKGRFTISRDNAKNTLYLQMNSLRAEDTAVYYCARGVLDYGDMLMPWGQGTLVTVSSASTKGPSVFPLAPCSRSTSESTAALGCLVKDYFPEPVTVSWNSGALTSGVHTFPAVLQSSGLYSLSSVVTVPSSSLGTKTYTCNVDHKPSNTKVDKRV[letters of human IgG4 Fc with S228P (EU numbers) not shown]
light: DIQMTQSPSSLSASVGDRVTITCQASQDITNYLNWYQQKPGKAPKLLIYDASNLETGVPSRFSGSGSGTDFTFTISSLQPEDIATYYCQQADNHPPWTFGGGTKVEIKRTVAAPSVFIFPPSDEQLKSGTASVVCLLNNFYPREAKVQWKVDNALQSGNSQESVTEQDSKDSTYSLSSTLTLSKADYEKHKVYACEVTHQGLSSPVTKSFNRGEC
